# According to the supplement of paper PMC8728848:
# The list shows a part of the results.
# B1: PRKCE (Homo sapiens), Q02156 (protein)
# chain: MVVFNGLLKIKICEAVSLKPTAWSLRHAVGPRPQTFLLDPYIALNVDDSRIGQTATKQKTNSPAWHDEFVTDVCNGRKIELAVFHDAPIGYDDFVANCTIQFEELLQNGSRHFEDWIDLEPEGRVYVIIDLSGSSGEAPKDNEERVFRERMRPRKRQGAVRRRVHQVNGHKFMATYLRQPTYCSHCRDFIWGVIGKQGYQCQVCTCVVHKRCHELIITKCAGLKKQETPDQVGSQRFSVNMPHKFGIHNYKVPTFCDHCGSLLWGLLRQGLQCKVCKMNVHRRCETNVAPNCGVDARGIAKVLADLGVTPDKITNSGQRRKKLIAGAESPQPASGSSPSEEDRSKSAPTSPCDQEIKELENNIRKALSFDNRGEEHRAASSPDGQLMSPGENGEVRQGQAKRLGLDEFNFIKVLGKGSFGKVMLAELKGKDEVYAVKVLKKDVILQDDDVDCTMTEKRILALARKHPYLTQLYCCFQTKDRLFFVMEYVNGGDLMFQIQRSRKFDEPRSRFYAAEVTSALMFLHQHGVIYRDLKLDNILLDAEGHCKLADFGMCKEGILNGVTTTTFCGTPDYIAPEILQELEYGPSVDWWALGVLMYEMMAGQPPFEADNEDDLFESILHDDVLYPVWLSKEAVSILKAFMTKNPHKRLGCVASQNGEDAIKQHPFFKEIDWVLLEQKKIKPPFKPRIKTKRDVNNFDQDFTREEPVLTLVDEAIVKQINQEEFKGFSYFGEDLMP
# Columns and labels:
# Experiment in all cases: glycan array binding signal (z-score within array); higher = stronger binding
# Settings in all cases: glycan notation: IUPAC condensed, linker removed
# Gal(b1-3)GlcNAc6S = biological target: Gal(b1-3)GlcNAc6S
# Summary of the method: (§1)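 Arrays were curated from the Consortium for Functional Glycomics database, 3228 in total, and kept only where the protein sequence was available. Binding is expressed as a within-array Z-score. This score was averaged across arrays of the same protein sequence at different concentrations or buffers and across linkers, and negative values can be read as non-binding.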
# [1] = biological target: Gal(b1-3)[Fuc(a1-4)]GlcNAc
# Summary of the method: as §1
# [2] = biological target: Gal(b1-3)[Fuc(a1-4)]GlcNAc(b1-2)Man(a1-3)[Gal(b1-3)[Fuc(a1-4)]GlcNAc(b1-2)Man(a1-6)]Man(b1-4)GlcNAc(b1-4)[Fuc(a1-6)]GlcNAc
# Summary of the method: as §1
# [3] = biological target: Gal(b1-3)[Fuc(a1-4)]GlcNAc(b1-3)Gal(b1-3)[Fuc(a1-4)]GlcNAc
# Summary of the method: as §1
# [4] = biological target: Gal(b1-3)[Fuc(a1-4)]GlcNAc(b1-3)Gal(b1-4)GlcNAc
# Summary of the method: as §1
# [5] = biological target: Gal(b1-3)[Fuc(a1-4)]GlcNAc(b1-3)Gal(b1-4)[Fuc(a1-3)]GlcNAc
# Summary of the method: as §1
# [6] = biological target: Gal(b1-3)[Fuc(a1-4)]GlcNAc(b1-6)GalNAc
# Summary of the method: as §1
# [7] = biological target: Gal(b1-3)[GlcNAc(b1-6)]GalNAc
# Summary of the method: as §1
# [8] = biological target: Gal(b1-3)[Neu5Ac(a2-6)]GalNAc
# Summary of the method: as §1
# [9] = biological target: Gal(b1-3)[Neu5Ac(a2-6)]GlcNAc(b1-6)Gal(b1-4)Glc
# Summary of the method: as §1
# [10] = biological target: Gal(b1-3)[Neu5Ac(b2-6)]GalNAc
# Summary of the method: as §1
# Gal(b1-4)Gal = biological target: Gal(b1-4)Gal
# Summary of the method: as §1
# [11] = biological target: Gal(b1-4)GalNAc(a1-3)[Fuc(a1-2)]Gal(b1-4)GlcNAc
# Summary of the method: as §1
# [12] = biological target: Gal(b1-4)GalNAc(b1-3)[Fuc(a1-2)]Gal(b1-4)GlcNAc
# Summary of the method: as §1
# Gal(b1-4)Glc = biological target: Gal(b1-4)Glc
# Summary of the method: as §1
# Gal(b1-4)Glc6S = biological target: Gal(b1-4)Glc6S
# Summary of the method: as §1
# Gal(b1-4)GlcNAc = biological target: Gal(b1-4)GlcNAc
# Summary of the method: as §1
# [13] = biological target: Gal(b1-4)GlcNAc(a1-6)Gal(b1-4)GlcNAc
# Summary of the method: as §1
# Gal(b1-4)GlcNAc(b1-2)Man = biological target: Gal(b1-4)GlcNAc(b1-2)Man
# Summary of the method: as §1
# [14] = biological target: Gal(b1-4)GlcNAc(b1-2)Man(a1-3)Man(b1-4)GlcNAc(b1-4)GlcNAc
# Summary of the method: as §1
# [15] = biological target: Gal(b1-4)GlcNAc(b1-2)Man(a1-3)[Gal(b1-4)GlcNAc(b1-2)Man(a1-6)]Man(b1-4)GlcNAc(b1-4)GlcNAc
# Summary of the method: as §1
# [16] = biological target: Gal(b1-4)GlcNAc(b1-2)Man(a1-3)[Gal(b1-4)GlcNAc(b1-2)Man(a1-6)]Man(b1-4)GlcNAc(b1-4)[Fuc(a1-6)]GlcNAc
# Summary of the method: as §1
# [17] = biological target: Gal(b1-4)GlcNAc(b1-2)Man(a1-3)[Gal(b1-4)GlcNAc(b1-2)][GlcNAc(b1-4)]Man(b1-4)GlcNAc(b1-4)GlcNAc
# Summary of the method: as §1
# [18] = biological target: Gal(b1-4)GlcNAc(b1-2)Man(a1-3)[GlcNAc(b1-2)Man(a1-6)]Man(b1-4)GlcNAc(b1-4)GlcNAc
# Summary of the method: as §1
# [19] = biological target: Gal(b1-4)GlcNAc(b1-2)Man(a1-3)[Man(a1-6)]Man(b1-4)GlcNAc(b1-4)GlcNAc
# Summary of the method: as §1
# [20] = biological target: Gal(b1-4)GlcNAc(b1-2)Man(a1-6)Man(b1-4)GlcNAc(b1-4)GlcNAc
# Summary of the method: as §1
# [21] = biological target: Gal(b1-4)GlcNAc(b1-2)Man(a1-6)[GlcNAc(b1-2)Man(a1-3)]Man(b1-4)GlcNAc(b1-4)GlcNAc
# Summary of the method: as §1
# [22] = biological target: Gal(b1-4)GlcNAc(b1-2)Man(a1-6)[Man(a1-3)]Man(b1-4)GlcNAc(b1-4)GlcNAc
# Summary of the method: as §1
# [23] = biological target: Gal(b1-4)GlcNAc(b1-2)[Gal(b1-4)GlcNAc(b1-4)]Man(a1-3)[Gal(b1-4)GlcNAc(b1-2)Man(a1-6)]Man(b1-4)GlcNAc(b1-4)GlcNAc
# Summary of the method: as §1
# [24] = biological target: Gal(b1-4)GlcNAc(b1-2)[Gal(b1-4)GlcNAc(b1-4)]Man(a1-3)[Gal(b1-4)GlcNAc(b1-2)[Gal(b1-4)GlcNAc(b1-6)]Man(a1-6)]Man(b1-4)GlcNAc(b1-4)GlcNAc
# Summary of the method: as §1
binder,measurement,setting,value
B1,glycan array binding signal (z-score),Gal(b1-3)GlcNAc6S,-0.044
same,glycan array binding signal (z-score),[1],-0.387
same,glycan array binding signal (z-score),[2],0.082
same,glycan array binding signal (z-score),[3],-0.381
same,glycan array binding signal (z-score),[4],-0.375
same,glycan array binding signal (z-score),[5],-0.26
same,glycan array binding signal (z-score),[6],0.102
same,glycan array binding signal (z-score),[7],0.429
same,glycan array binding signal (z-score),[8],-0.319
same,glycan array binding signal (z-score),[9],-0.065
same,glycan array binding signal (z-score),[10],-0.23
same,glycan array binding signal (z-score),Gal(b1-4)Gal,0.005
same,glycan array binding signal (z-score),[11],-0.242
same,glycan array binding signal (z-score),[12],0.061
same,glycan array binding signal (z-score),Gal(b1-4)Glc,-0.241
same,glycan array binding signal (z-score),Gal(b1-4)Glc6S,0.831
same,glycan array binding signal (z-score),Gal(b1-4)GlcNAc,-0.411
same,glycan array binding signal (z-score),[13],-0.379
same,glycan array binding signal (z-score),Gal(b1-4)GlcNAc(b1-2)Man,-0.353
same,glycan array binding signal (z-score),[14],0.471
same,glycan array binding signal (z-score),[15],0.614
same,glycan array binding signal (z-score),[16],-0.398
same,glycan array binding signal (z-score),[17],-0.146
same,glycan array binding signal (z-score),[18],2.61
same,glycan array binding signal (z-score),[19],0.265
same,glycan array binding signal (z-score),[20],-0.31
same,glycan array binding signal (z-score),[21],1.3
same,glycan array binding signal (z-score),[22],0.074
same,glycan array binding signal (z-score),[23],-0.066
same,glycan array binding signal (z-score),[24],-0.392
